{
  "source": "PubChem BioAssay (Tox21)",
  "key": {"[1]": {"experiment": "qHTS assay for small molecule agonists of the p53 signaling pathway (AID 651631; calls by dose curve; note: potency is the fitted concentration of half-maximal effect; nearly all actives have a fitted effect of over 15% in size)", "conditions": "HCT-116 p53RE-bla reporter, beta-lactamase FRET ratio, 16 h; activation: at 73.3 µM (top of the series) unless noted", "procedure,_shortened": "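Readout was fluorescence from the LiveBLAzer FRET substrate, applied for 2 h at room temperature after 16 h compound exposure at 37 °C. Cells were the p53RE-bla HCT-116 line, with beta-lactamase driven by p53 response elements.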"}, "[2]": {"experiment": "qHTS assay for small molecule disruptors of the mitochondrial membrane potential (AID 720635); note: potency is the fitted concentration of half-maximal effect", "conditions": "HepG2 mitochondrial membrane potential, Mito-MPS dye ratio; ratio activity, negative = MMP loss: at 83.2 µM (top of the series) unless noted", "procedure,_shortened": "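HepG2 cells exposed to compound 1 hr at 37C, then Mito-MPS dye 30 min. Ratio read of aggregate (540/590 nm) versus monomer (490/535 nm) fluorescence.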"}, "[3]": {"target": "Glucocorticoid receptor (Homo sapiens) (UniProt P04150)", "sequence (P04150 whole entry, looked up)": "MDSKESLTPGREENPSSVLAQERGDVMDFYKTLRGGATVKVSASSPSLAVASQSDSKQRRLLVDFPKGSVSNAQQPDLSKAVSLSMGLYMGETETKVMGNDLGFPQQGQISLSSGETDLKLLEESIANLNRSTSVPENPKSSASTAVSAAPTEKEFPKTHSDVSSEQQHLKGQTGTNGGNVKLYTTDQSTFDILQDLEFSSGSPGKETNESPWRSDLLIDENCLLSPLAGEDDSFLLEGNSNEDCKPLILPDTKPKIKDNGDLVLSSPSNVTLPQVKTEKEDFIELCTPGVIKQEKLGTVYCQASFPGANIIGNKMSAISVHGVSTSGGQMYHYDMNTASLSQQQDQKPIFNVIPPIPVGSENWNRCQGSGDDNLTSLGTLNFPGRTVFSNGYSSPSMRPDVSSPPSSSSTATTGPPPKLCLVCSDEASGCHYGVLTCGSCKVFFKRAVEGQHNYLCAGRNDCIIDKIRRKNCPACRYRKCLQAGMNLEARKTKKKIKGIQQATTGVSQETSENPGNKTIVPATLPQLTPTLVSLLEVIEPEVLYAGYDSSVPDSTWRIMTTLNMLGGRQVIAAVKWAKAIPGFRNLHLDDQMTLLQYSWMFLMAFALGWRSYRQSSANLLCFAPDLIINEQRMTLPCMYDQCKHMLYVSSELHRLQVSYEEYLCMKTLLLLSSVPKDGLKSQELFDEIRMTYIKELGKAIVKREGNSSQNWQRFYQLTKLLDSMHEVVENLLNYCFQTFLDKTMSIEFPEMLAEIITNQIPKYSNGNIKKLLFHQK", "experiment": "qHTS assay to identify small molecule antagonists of the glucocorticoid receptor (GR) signaling pathway (AID 720692; active = well fitted inhibition curve with a large enough effect in the signal ratio in the repeat runs, not every such curve was filed as active; inconclusive = weak or mixed curves, or effect the other way; inactive = no such curve, though single readings can be large or run the other way; the % refers to the signal ratio; note: % is set by controls: 0 for no effect and ±100 for the full control effect)", "conditions": "GR-bla HeLa, beta-lactamase FRET ratio, dexamethasone-stimulated, 18 h; activity change, negative = inhibition: at 58.5 µM (top of the series) unless noted", "procedure,_shortened": "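GR-bla HeLa cells (beta-lactamase reporter under glucocorticoid response element) were pre-plated 4 h at 37 C, treated with compounds plus 5 nM dexamethasone (final) for 18 h, then read by LiveBLAzer B/G FRET fluorescence after 2 h.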"}, "[4]": {"experiment": "qHTS assay to identify small molecule agonists of the retinoic acid receptor (RAR) signaling pathway (AID 1159553); note: potency is the fitted concentration of half-maximal effect", "conditions": "C3RL4 RARE luciferase reporter, agonist, 6 h; activation: at 73.3 µM (top of the series) unless noted", "procedure,_shortened": "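C3RL4 cells carrying a RARE luciferase reporter were plated overnight at 37 C, then exposed to compounds in DMSO for 6 hr at 37 C and 5% CO2. Luminescence was read 30 min after luciferase reagent addition at room temperature.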"}, "[5]": {"target": "Progesterone receptor (Homo sapiens) (UniProt P06401)", "sequence (P06401 whole entry, looked up)": "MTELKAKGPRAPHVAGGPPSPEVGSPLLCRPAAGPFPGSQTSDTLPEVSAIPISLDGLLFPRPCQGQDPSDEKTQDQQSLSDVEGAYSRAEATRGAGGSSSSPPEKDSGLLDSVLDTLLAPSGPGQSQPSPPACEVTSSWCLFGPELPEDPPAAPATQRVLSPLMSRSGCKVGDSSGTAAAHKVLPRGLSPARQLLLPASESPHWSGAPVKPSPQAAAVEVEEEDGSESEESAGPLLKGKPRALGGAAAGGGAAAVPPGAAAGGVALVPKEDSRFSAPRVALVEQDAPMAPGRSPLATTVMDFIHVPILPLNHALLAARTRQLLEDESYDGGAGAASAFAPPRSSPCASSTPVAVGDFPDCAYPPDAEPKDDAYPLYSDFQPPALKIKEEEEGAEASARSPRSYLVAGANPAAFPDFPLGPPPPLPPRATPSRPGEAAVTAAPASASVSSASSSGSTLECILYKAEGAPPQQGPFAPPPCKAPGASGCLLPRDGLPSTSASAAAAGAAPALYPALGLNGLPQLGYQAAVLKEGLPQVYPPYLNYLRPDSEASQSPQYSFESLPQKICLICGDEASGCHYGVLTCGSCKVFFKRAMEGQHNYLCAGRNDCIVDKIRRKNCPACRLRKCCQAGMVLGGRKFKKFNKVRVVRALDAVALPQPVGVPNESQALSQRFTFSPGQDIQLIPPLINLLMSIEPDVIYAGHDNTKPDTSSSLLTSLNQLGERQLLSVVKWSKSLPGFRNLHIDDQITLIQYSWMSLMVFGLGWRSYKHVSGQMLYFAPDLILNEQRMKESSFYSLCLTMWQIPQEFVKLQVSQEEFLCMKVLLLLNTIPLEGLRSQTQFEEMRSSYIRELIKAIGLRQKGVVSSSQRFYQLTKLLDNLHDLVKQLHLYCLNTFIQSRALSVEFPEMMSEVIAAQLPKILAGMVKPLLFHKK", "experiment": "qHTS assay to identify small molecule antagonists of the progesterone receptor (PR) signaling pathway (AID 1346795; active = well fitted inhibition curve with a large enough effect in the signal ratio in the repeat runs, not every such curve was filed as active; inconclusive = weak or mixed curves; the % refers to the signal ratio; note: % is set by controls: 0 for no effect and ±100 for the full control effect)", "conditions": "PR-UAS-bla HEK293T, beta-lactamase FRET ratio, 16 h; activity change, negative = inhibition: at 92.4 µM (top of the series) unless noted", "procedure,_shortened": "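Antagonist mode with agonist R5020 at 1 nM final and 16 hr incubation at 37C. Reporter was beta-lactamase driven by UAS in HEK293T (PR-UAS-bla), 2% charcoal-stripped serum; signal from LiveBLAzer FRET substrate, 2 hr at room temperature.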"}, "[6]": {"target": "Cytochrome P450 2D6 (Homo sapiens) (UniProt P10635)", "sequence (P10635 whole entry, looked up)": "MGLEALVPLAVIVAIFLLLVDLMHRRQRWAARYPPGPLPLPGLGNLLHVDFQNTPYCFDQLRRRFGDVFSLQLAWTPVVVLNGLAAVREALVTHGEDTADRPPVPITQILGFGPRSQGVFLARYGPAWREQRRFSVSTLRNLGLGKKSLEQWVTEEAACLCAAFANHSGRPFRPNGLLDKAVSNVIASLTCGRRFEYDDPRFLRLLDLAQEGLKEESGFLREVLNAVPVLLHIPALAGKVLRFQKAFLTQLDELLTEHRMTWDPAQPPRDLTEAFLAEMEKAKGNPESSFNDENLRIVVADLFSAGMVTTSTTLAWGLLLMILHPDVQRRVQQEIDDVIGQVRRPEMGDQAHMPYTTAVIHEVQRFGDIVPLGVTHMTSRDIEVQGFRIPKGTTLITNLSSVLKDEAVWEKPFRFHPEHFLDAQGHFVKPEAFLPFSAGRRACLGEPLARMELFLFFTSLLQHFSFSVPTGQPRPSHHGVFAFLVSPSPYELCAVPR", "experiment": "Cytochrome P450 Family 2 Subfamily D Member 6 (CYP2D6) small molecule antagonists: luciferase reporter qHTS assay (AID 1671196); note: % is set by controls: 0 for no effect and ±100 for the full control effect; nearly all actives have a fitted effect of over 50% in size", "procedure,_shortened": "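CYP2D6 enzyme–substrate mix was held with compound for 10 min at room temperature, then NADPH regeneration solution was added and the reaction ran 1 h at room temperature. Luciferin product was detected by luminescence after 20 min with detection reagent.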"}, "[7]": {"target": "Cytochrome P450 2C9 (Homo sapiens) (UniProt P11712)", "sequence (P11712 whole entry, looked up)": "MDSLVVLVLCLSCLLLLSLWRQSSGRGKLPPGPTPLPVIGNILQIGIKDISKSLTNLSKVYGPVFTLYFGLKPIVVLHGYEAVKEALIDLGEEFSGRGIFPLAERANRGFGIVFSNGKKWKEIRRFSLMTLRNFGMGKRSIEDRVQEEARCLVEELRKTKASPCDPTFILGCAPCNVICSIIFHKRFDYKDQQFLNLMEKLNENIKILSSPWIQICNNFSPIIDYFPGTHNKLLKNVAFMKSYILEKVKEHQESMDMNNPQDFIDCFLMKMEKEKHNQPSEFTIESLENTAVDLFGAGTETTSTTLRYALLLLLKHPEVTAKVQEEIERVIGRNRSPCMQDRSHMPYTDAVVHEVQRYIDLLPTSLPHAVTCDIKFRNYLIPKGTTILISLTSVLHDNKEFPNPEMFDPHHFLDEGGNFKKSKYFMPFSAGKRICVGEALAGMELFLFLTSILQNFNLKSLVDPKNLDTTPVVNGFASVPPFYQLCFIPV", "experiment": "Cytochrome P450 Family 2 Subfamily C Member 9 (CYP2C9) small molecule antagonists: luciferase reporter qHTS assay (AID 1671198); note: potency is the fitted concentration of half-maximal effect; nearly all actives have a fitted effect of over 50% in size", "procedure,_shortened": "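P450-Glo proluciferin substrate with CYP2C9 enzyme; 10 min RT preincubation, then NADPH regeneration 1 h at 37C; luciferin detection reagent 20 min RT, luminescence in relative luminescence units.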"}, "[8]": {"target": "Cytochrome P450 1A2 (Homo sapiens) (UniProt P05177)", "sequence (P05177 whole entry, looked up)": "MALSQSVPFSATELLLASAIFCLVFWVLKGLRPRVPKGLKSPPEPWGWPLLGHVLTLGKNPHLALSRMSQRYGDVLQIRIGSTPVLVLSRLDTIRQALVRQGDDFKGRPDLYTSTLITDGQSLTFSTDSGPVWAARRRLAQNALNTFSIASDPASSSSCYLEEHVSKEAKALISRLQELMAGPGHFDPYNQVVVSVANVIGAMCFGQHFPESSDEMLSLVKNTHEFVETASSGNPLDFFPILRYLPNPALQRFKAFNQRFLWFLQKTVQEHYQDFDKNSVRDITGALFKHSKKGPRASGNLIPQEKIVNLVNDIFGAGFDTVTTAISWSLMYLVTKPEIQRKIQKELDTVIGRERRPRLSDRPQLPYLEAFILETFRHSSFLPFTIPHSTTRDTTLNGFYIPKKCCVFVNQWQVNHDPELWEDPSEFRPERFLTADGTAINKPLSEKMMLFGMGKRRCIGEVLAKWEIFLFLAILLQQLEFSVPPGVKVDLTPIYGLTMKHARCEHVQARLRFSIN", "experiment": "Cytochrome P450 Family 1 Subfamily A Member 2 (CYP1A2) small molecule antagonists: luciferase reporter qHTS assay (AID 1671199); note: potency is the fitted concentration of half-maximal effect; nearly all actives have a fitted effect of over 50% in size", "procedure,_shortened": "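Human CYP1A2 activity measured with a P450-Glo proluciferin substrate; compounds in DMSO preincubated 10 min at room temperature with enzyme-substrate mix, then NADPH regeneration system added for 1 h. Luciferin detection reagent, 20 min, luminescence read.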"}, "[9]": {"experiment": "qHTS assay for identifying genotoxic compounds that show differential cytotoxicity against isogenic chicken DT40 cell lines with known DNA damage response pathways - Rev3 mutant cell line (AID 743014); note: potency is the fitted concentration of half-maximal effect; nearly all actives have a fitted effect of over 55% in size", "conditions": "chicken DT40 Rev3-/- viability, CellTiter-Glo, 40 h; activity, negative = cytotoxicity: at 68.4 µM (top of the series)"}, "[10]": {"experiment": "qHTS assay to identify small molecule antagonists of the thyroid receptor (TR) signaling pathway - cell viability counter screen (AID 743064); note: potency is the fitted concentration of half-maximal effect; nearly all actives have a fitted effect of over 50% in size", "conditions": "GH3.TRE-Luc viability, CellTiter-Fluor, 24 h; activity change, negative = cytotoxic: at 70.3 µM (top of the series) unless noted", "procedure,_shortened": "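In-well cytotoxicity read by CellTiter-Fluor (30 min, 37 C) following 23.5 h exposure of GH3 cells bearing a TRE-luciferase sensor. Compounds were added alongside 1 nM (final) T3 to drive TR transactivation.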"}, "[11]": {"target": "Peroxisome proliferator-activated receptor gamma (Homo sapiens) (UniProt P37231)", "sequence (P37231 whole entry, looked up)": "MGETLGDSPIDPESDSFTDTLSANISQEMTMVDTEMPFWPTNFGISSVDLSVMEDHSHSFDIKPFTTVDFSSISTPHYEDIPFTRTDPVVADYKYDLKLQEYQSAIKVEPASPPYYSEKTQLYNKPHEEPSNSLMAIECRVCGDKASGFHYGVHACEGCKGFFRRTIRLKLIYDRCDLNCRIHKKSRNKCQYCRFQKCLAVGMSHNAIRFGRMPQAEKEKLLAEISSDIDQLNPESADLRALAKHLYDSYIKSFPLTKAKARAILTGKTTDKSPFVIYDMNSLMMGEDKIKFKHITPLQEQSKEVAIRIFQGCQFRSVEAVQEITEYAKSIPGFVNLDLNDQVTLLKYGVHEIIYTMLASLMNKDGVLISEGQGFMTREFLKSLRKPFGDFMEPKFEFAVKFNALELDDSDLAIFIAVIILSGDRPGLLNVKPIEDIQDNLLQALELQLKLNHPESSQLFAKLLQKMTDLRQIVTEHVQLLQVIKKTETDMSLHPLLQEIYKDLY", "experiment": "qHTS assay to identify small molecule antagonists of the peroxisome proliferator-activated receptor gamma (PPARg) signaling pathway (AID 743191; calls by dose curve; note: % is set by controls: 0 for no effect and ±100 for the full control effect; nearly all actives have a fitted effect of over 30% in size)", "conditions": "HEK293H PPARg-UAS-bla, beta-lactamase ratio, antagonist, 17 h; ratio activity, negative = inhibition: at 62.6 µM (top of the series) unless noted", "procedure,_shortened": "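GeneBLAzer PPARg UAS-bla HEK293H cells, 5 h post-plating, exposed to compounds 17 h at 37C. LiveBLAzer B/G FRET substrate added for 1 h at room temperature; beta-lactamase reporter read by fluorescence intensity.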"}, "[12]": {"experiment": "qHTS assay for small molecule agonists of the antioxidant response element (ARE) signaling pathway (AID 743202; active = well fitted activation curve with a large enough effect in the signal ratio in the repeat runs, not every such curve was filed as active; inconclusive = weak or mixed curves, or effect the other way; inactive = no such curve, though single readings can be large or run the other way; the % refers to the signal ratio; note: potency is the fitted concentration of half-maximal effect)", "conditions": "HepG2 ARE-bla reporter, beta-lactamase FRET, 16 h; activation: at 73.3 µM (top of the series) unless noted", "procedure,_shortened": "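Agonist mode reporter screen: HepG2 cells with ARE-controlled beta-lactamase are incubated with test compounds for 16 h at 37 C, and beta-lactamase activity is measured as fluorescence of cleaved B/G FRET substrate.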"}, "[13]": {"target": "Vitamin D3 receptor (Homo sapiens) (UniProt P11473)", "sequence (P11473 whole entry, looked up)": "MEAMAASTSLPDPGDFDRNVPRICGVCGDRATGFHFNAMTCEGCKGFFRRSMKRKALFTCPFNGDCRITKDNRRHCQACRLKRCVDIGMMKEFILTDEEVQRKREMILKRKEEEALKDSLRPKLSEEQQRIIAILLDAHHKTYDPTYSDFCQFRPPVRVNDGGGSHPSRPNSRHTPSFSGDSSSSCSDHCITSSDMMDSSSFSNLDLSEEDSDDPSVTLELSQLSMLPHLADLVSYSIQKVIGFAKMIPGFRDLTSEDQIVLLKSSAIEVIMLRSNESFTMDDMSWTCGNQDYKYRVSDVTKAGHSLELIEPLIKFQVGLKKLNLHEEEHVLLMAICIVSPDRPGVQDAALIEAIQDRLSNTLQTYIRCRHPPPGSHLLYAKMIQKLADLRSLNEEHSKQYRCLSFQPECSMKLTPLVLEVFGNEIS", "experiment": "qHTS assay to identify small molecule antagonists of the vitamin D receptor (VDR) signaling pathway (AID 743223; active = well fitted inhibition curve with a large enough effect in the signal ratio in the repeat runs, not every such curve was filed as active; inconclusive = weak or mixed curves, or effect the other way; inactive = no such curve, though single readings can be large or run the other way; the % refers to the signal ratio; note: % is set by controls: 0 for no effect and ±100 for the full control effect)", "conditions": "VDR-UAS-bla HEK293T, beta-lactamase FRET ratio, 16 h; activity change, negative = inhibition: at 61 µM (top of the series) unless noted", "procedure,_shortened": "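Antagonist mode: compound added to VDR-bla cells alongside agonist 1alpha,25-dihydroxyvitamin D3 (3 nM final), incubation 16 h at 37C. Read-out is LiveBLAzer FRET fluorescence, 2 h at room temperature.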"}, "[14]": {"experiment": "qHTS assay to identify small molecule antagonists of the sonic hedgehog signaling (Shh) pathway (AID 1259369; calls by dose curve; note: potency is the fitted concentration of half-maximal effect; nearly all actives have a fitted effect of over 45% in size)", "procedure,_shortened": "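NIH/3T3-derived 3T3Gli1-Luc cells with stably integrated Gli1-Luc reporter were preincubated 4hr at 37 C, then given compounds in DMSO plus Shh conditioned medium and incubated 24hr. Firefly luciferase luminescence read after 30min reagent at room temperature.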"}, "[15]": {"experiment": "qHTS assay to identify small molecule agonists of the progesterone receptor (PR) signaling pathway - cell viability counter screen (AID 1346799; calls by dose curve; note: % is set by controls: 0 for no effect and ±100 for the full control effect; nearly all actives have a fitted effect of over 45% in size)", "procedure,_shortened": "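Cytotoxicity measured by CellTiter-Glo luminescence (30 min, RT) in the same wells as the PR beta-lactamase agonist read. Those HEK293T cells had 16 h compound treatment at 37 C in 2% charcoal-stripped FBS medium.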"}},
  "note": "This list was built around the results that the source calls inconclusive (neither active nor inactive); the mix of calls is not that of the screen. For some assays here: Potencies of inconclusive entries are doubtful fits and often do not repeat. Active and inactive are the calls of the source. Unless noted, calls come from the whole dose curve; as a rule, active = well fitted curve in the direction sought with a large enough effect in the repeat runs; inconclusive = weak or mixed curves; inactive = no such curve, though single readings can be large; an effect the other way counts as inactive or inconclusive. Tags give direction and shape of the fitted curve or compound fluorescence and quenching.",
  "data": [
    {"smiles": "CCOC(=O)COc1ccc(Cl)cc1Cl", "values": [
      {"measurement": "Potency", "setting": "[1]", "result": "inconclusive: 30.6 µM [falling, partial curve, poor fit]"},
      {"measurement": "Potency", "setting": "[2]", "result": "inconclusive: 7.7 µM [activator, partial curve, poor fit]"},
      {"measurement": "activity change, negative = inhibition", "setting": "[3]", "result": "inconclusive: 29.5%"},
      {"measurement": "Potency", "setting": "[4]", "result": "inconclusive: 0.77 µM [activator, full curve, poor fit]"},
      {"measurement": "Potency", "setting": "[5]", "result": "inactive"},
      {"measurement": "Potency", "setting": "[6]", "result": "inactive"},
      {"measurement": "Potency", "setting": "[7]", "result": "inconclusive: 39.9 µM [inhibitor, partial curve]"},
      {"measurement": "Potency", "setting": "[8]", "result": "active: 31.7 µM"}
    ]},
    {"smiles": "N#CC(C#N)=Cc1ccc(O)c(O)c1", "values": [
      {"measurement": "Potency", "setting": "[2]", "result": "active: 11.9 µM"},
      {"measurement": "Potency", "setting": "[9]", "result": "active: 26.6 µM"},
      {"measurement": "Potency", "setting": "[10]", "result": "inconclusive: 11.9 µM [cytotoxic, partial curve]"},
      {"measurement": "Potency", "setting": "[11]", "result": "inactive"},
      {"measurement": "Potency", "setting": "[12]", "result": "inconclusive: 26.6 µM [rising, partial curve, poor fit]"},
      {"measurement": "Potency", "setting": "[13]", "result": "inactive"},
      {"measurement": "Potency", "setting": "[4]", "result": "active: 26.6 µM"},
      {"measurement": "Potency", "setting": "[14]", "result": "active: 7.5 µM"},
      {"measurement": "Potency", "setting": "[15]", "result": "inactive"},
      {"measurement": "Potency", "setting": "[8]", "result": "inconclusive: 27.5 µM [inhibitor, partial curve, poor fit]"}
    ]},
    {"smiles": "CN[C@@H]1C[C@@H](c2ccc(Cl)c(Cl)c2)c2ccccc21", "values": [
      {"measurement": "Potency", "setting": "[1]", "result": "inconclusive: 29.8 µM"},
      {"measurement": "Potency", "setting": "[3]", "result": "inactive"}
    ]}
  ]
}
